Data taken from publication PMC4336329 (PLoS ONE, 2015).
The campaign covered roughly 310,000 compounds. About 14,000 (4.5%) showed an effect of 50% or more. Effects have a minus sign here. The list shows a part of the results.

target: human ether-à-go-go-related gene (hERG) potassium channel (human, UniProt Q12809); assay: primary screen, population patch clamp on CHO cells stably expressing hERG
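Note: peak tail current of the secondary pulse compared with the same well before compound.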

Sequence of human ether-à-go-go-related gene (hERG) potassium channel (Q12809 whole entry, looked up): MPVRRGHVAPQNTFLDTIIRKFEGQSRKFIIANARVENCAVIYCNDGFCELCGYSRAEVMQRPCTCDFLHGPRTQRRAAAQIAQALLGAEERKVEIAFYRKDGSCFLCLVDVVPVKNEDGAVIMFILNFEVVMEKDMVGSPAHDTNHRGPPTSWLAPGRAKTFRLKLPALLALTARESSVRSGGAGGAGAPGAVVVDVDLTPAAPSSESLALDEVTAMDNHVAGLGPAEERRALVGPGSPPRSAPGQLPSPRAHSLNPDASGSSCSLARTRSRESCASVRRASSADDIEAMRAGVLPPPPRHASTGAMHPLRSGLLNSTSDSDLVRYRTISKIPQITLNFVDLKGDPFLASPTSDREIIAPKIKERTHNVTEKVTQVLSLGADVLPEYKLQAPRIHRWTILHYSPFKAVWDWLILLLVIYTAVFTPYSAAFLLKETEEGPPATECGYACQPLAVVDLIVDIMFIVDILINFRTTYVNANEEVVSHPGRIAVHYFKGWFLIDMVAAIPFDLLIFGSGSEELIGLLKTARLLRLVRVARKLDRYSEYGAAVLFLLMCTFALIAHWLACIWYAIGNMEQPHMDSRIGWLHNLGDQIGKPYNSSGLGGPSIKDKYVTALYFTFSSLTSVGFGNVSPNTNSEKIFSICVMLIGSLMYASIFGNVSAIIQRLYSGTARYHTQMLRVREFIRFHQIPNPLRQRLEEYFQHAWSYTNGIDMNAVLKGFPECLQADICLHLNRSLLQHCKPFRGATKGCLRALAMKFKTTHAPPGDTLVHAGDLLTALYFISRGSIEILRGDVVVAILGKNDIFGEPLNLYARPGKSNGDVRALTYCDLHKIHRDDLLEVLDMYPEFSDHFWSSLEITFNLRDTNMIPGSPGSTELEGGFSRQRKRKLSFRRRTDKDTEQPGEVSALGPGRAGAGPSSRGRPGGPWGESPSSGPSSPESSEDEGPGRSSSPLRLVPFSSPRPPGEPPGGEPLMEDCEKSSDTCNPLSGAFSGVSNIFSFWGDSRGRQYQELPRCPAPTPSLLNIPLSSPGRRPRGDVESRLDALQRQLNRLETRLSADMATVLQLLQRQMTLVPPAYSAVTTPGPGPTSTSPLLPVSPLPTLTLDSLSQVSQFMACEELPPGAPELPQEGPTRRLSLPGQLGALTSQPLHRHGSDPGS

Row | SMILES | hERG current change (%, negative = inhibition) at 10uM [%]
1 | CC(=O)Nc1ccc(N(C(=O)c2ccccn2)C(C(=O)NC2CCCCC2)c2ccc(F)cc2)cc1 (centres unmarked) | -5.7
2 | Cc1cccc(N2CC(C(=O)Nc3ccc(S(=O)(=O)Nc4nccs4)cc3)CC2=O)c1C (centres unmarked) | 10.1
3 | CSc1ccc(NC(=O)N2CCN(c3nc4ccccc4s3)CC2)cc1 | 1.47
4 | CCOC(=O)/C=C/C(=O)OCC(=O)Nc1c(Cl)cccc1Cl | -9.87
5 | CC(=O)NCC(=O)NC(C(=O)Nc1ccc2c(c1)OCCO2)c1ccccc1 (centres unmarked) | 6.08
6 | COCC(=O)Nc1ccc([N+](=O)[O-])cc1OC | 1.42
7 | Cl.c1cncc(CNCCc2c[nH]c3ccccc23)c1 | 4.01
8 | Clc1ccc(-c2nnc(SCc3nc4ccccc4[nH]3)o2)c(Cl)c1 | -4.46
9 | Cc1ccc2c(c1)c(-c1csc(N)n1)c(C)n2C | -0.788
10 | CCOC(=O)c1c(/N=C/c2ccc(OC)cc2O)sc2c1CCN(C)C2 | -10.6
11 | O=c1c(/C=N/N2CCOCC2)c(O)n(-c2ccccc2)c(=S)n1-c1ccccc1 | -0.752
12 | COc1ccc(-c2nnn(CC(=O)N(c3cccc(O)c3)C(C)C(=O)NC3CCCC3)n2)cc1OC (centres unmarked) | -7.47
13 | CCOC(=O)C1(CCCc2ccccc2)CCN(CCCn2cccn2)CC1 | -79.1
14 | C=CCOc1ccc(/C=N/NC(=O)CN(c2cc(Cl)ccc2OC)S(=O)(=O)c2ccc(C)c([N+](=O)[O-])c2)cc1 | 2.45
15 | O=C(O)c1cc(-c2ccccc2)c(N2CCOCC2)s1 | 12.7
16 | CCOC(=O)Nc1ccc(OC)cc1S(=O)(=O)N1CCCCC1 | -22.8
17 | CCCn1c(=S)[nH]c2cc(Cl)ccc21 | 9.68
18 | COc1nc(NCc2ccco2)nc(NC2CCCCC2)n1 | -33.2
19 | CC(=O)Nc1ccc(S(=O)(=O)NC2=C(N3CCN(C)CC3)C(=O)c3ccccc3C2=O)cc1 | -0.763
20 | O=C(c1cccc(F)c1)N1C2C=CC(C2)C1(C(F)(F)F)C(F)(F)F (centres unmarked) | -0.667
21 | Cc1ccc([N+](=O)[O-])cc1S(=O)(=O)N1CCN(C)CC1 | 0.51
22 | O=C(NC1CCCCC1)C1CC=CCC1C(=O)OCC(Cl)=C(Cl)Cl (centres unmarked) | -20.7

Row | SMILES | hERG current change (%, negative = inhibition) at 10uM [%]
23 | Cc1nc2ccccc2cc1OCc1ccccc1 | 23
24 | CC(C)Oc1ccc(C(=O)NCc2ccco2)cc1 | 2.54
25 | Cc1cc(S(=O)(=O)N2CCCC(N3CCOCC3)C2)c(C)cc1Cl (centres unmarked) | -26.3
26 | c1ccc2c(c1)Cn1nc(Cc3nc4c(s3)CCCC4)nc1-2 | -34
27 | COc1cc2nc(=S)n3[nH]c(CCn4c(C)nc5ccccc54)nc3c2cc1OC | 23.4
28 | COc1ccc(CN(C)Cc2nc3scc(-c4ccccc4)c3c(=O)[nH]2)cc1OC | 3.98
29 | Cc1ccccc1NN1C(=O)C=CC1=O | -8.26
30 | C=CCNC(=S)/N=c1\sccn1C | -15.8
31 | Cc1ccc2nc(SCC(=O)Nc3cccc(Cl)c3)nc(=O)n2c1 | -2.54
32 | O=C1CN(C(=O)c2cnccn2)c2ccccc2N1 | 14.7
33 | COc1ccc2c(-c3ccccc3)cc3nnnn3c2c1 | 3.09
34 | CCCCSCCCNC(=O)Nc1ccc(C)c(C)c1 | 6.21
35 | CCN1CCN(C(=O)Cn2c(=O)sc3ccccc32)CC1 | 3.26
36 | O=[N+]([O-])c1cc(-c2nnc(N3CCOCC3)c3ccccc23)ccc1N1CCOCC1 | -40.3
37 | COc1ccc(-c2noc(CSc3nc(-c4ccccc4)cc(=O)[nH]3)n2)cc1OC | 6.89
38 | Cc1ccc2[nH]c3c(NCCCN4CCCC4=O)ncnc3c2c1 | -13.7
39 | O=C(NCc1ccccc1)Nc1cccn(Cc2ccc(Cl)cc2)c1=O | 22.4
40 | Cl.N=C(N)SCc1cccc2ccccc12 | -13.3
41 | Cc1cccc(-c2nc(CSCC(=O)NCc3cccs3)c(C)o2)c1 | -12.2
42 | O=C(c1cc2cc3ccc(Cl)cc3nc2o1)N1CCC2(CC1)OCCO2 | -17.5
43 | O=C(CN1C(=O)NC2(CCCC2)C1=O)N1CCN(S(=O)(=O)c2ccccc2F)CC1 | 22.3
44 | NC(=O)c1ccc(-n2nc(C(F)(F)F)c3c2CCCC3)cc1 | -22.6
